The subject of the experiment is IDH1(R132H) primary human AML cells. The experiment in a line: AML cell differentiation in blood (flow cytometry, % hCD33+hCD11b+ of hCD45+ cells), human AML PDx models in NSG mice. In kind it is in vivo. The conditions noted are these: QD, PO, one animal. The protocol: Compounds and Formulation. For in vivo studies, each test article is prepared at an appropriate concentration with vehicle. […] Compound A is prepared fresh at the appropriate concentrations with vehicle every 7 days and stored at 4° C. between doses. […] Cytarabine is prepared fresh weekly by dilution with sterile saline from stock solution of Cytarabine (injection 20 mg/mL, (Pfizer injectables')). Azacitidine (Sigma, Lot #MKBR7212) is formulated in sterile water and is prepared fresh daily immediately before dosing. In vivo human AML PDx models. […] Two models are used in the studies: […] As needed, splenocytes from tumor-bearing mice are used to propagate and expand the models, as described. Each test article is prepared as described above at an appropriate concentration with vehicle to give animals the doses tested in this study at a dosing volume of 10 μL/gram body weight. Mice receiving Compound A (PO, QD) are treated at the indicated doses for the duration of the study. The combination agents are dosed as follows: […] Treated mice are assessed in comparison to vehicle treated and naïve (non-tumor bearing) control mice. Body weight is recorded twice per week. […] AML PDx model propagation. […] Spleens are processed and splenocytes isolated as described below. Two hundred μL per subject of the splenocyte prep is injected IV (intravenous, tail vein) into recipient NSG mice. […] Once engraftment is confirmed, the mice are monitored biweekly until ready to be put on study. […] Submandibular blood is collected. Spleen/Splenocyte Processing and Prep. After excision, a spleen is weighed, and […] is placed in a standard sterile 15 mL polypropylene conical tube containing PBS, and placed on ice. […] The spleen is placed in ice cold sterile PBS in a 15 mL collection tube. The spleen is removed from the collection tube and placed in a 100 micron 50 mL conical tube cell strainer (BD Falcon #352360). The spleen is processed by gentle rubbing of the spleen tissue against the surface of the cell strainer with the end of a 5 mL syringe plunger in a circular motion. The surface of the strainer is rinsed with 10 mL room temperature sterile DPBS (HyClone SH30028) 3 times during the process. […] The cell pellet is collected by centrifugation (300×g) and washed three times with 30 mL sterile DPBS. The cells are counted and resuspended in DPBS at the desired implant concentration. Bone Marrow Collection. […] Flow cytometry analysis of human white cells. Submandibular blood samples from in vivo studies are collected. Fluor-conjugated antibody stains are added according to the manufacturer's instructions (anti-human CD33-PE (clone WM53, BD Cat #555450), anti-human CD14-APC (clone MφpP9, BD Cat #340436), anti-human CD15-V450 (clone HI98, BD Cat #561584), anti-human CD117-BV421 (clone YB5.B8, BD Cat #562434), anti-human […]7 (clone ICRF44, BD Cat #557754), anti-human […]7 (clone HI30, BD Cat #557748), and anti-human CD3-FITC (clone SK7, BD Cat #340542)). The samples are incubated for 30 minutes at room temperature, protected from light. After the incubation, 1.5 mL 1×BD Lyse/Fix (37° C., (BD #558049)) is added to each sample and incubated for 12 minutes at room temperature. The tubes are centrifuged at 300×g for 7 minutes. BD Lyse/Fix solution is aspirated and the cell pellet washed with stain/wash buffer 3 times (1 wash step consisted of: pellet resuspended in 3 mL stain/wash buffer, centrifuged at 300×g, aspirated wash). Fixed cells are then resuspended in 300 to 400 μL stain/wash buffer. Samples are analyzed on a Becton Dickinson FACSVerse Flow cytometer (Cat #651155 Serial #Z6511550447) using standard flow cytometry principles and techniques. Samples are analyzed on the same day as they are stained and fixed. Population gating and data analysis of percent population are performed in the FACSuite software on the FACSVerse cytometer. Percent population values from the data analysis are plotted in Graphpad Prism or in JMP13. […]
For orientation: Flow cytometry measures light scatter and fluorescence of single cells or particles in a stream.

Where “and” joins values, the source holds several entries; their conditions need not be identical. Equal entries are not always repeated. This continues a long series; more values of the same kind are listed elsewhere.

On to `C=CC(=O)N1CCN([C@@H](CC2CC2)c2ccc([C@H](C)Nc3ncc4c(n3)N(CC)C(=O)OC4)cc2)CC1` [Compound A, 7-[[(1S)-1-[4-[(1S)-2-cyclopropyl-1-(4-prop-2-enoylpiperazin-1-yl)ethyl]phenyl]ethyl]amino]-1-ethyl-4H-pyrimido[4,5-d][1,3]oxazin-2-one], for which the “AML cell differentiation (% hCD33 + hCD11b+ (of hCD45+ cells))” value (B: 1 mg/kg Compound A, treatment day 7) was 24.79% and 18.62% and 18.4% and 20.43% and 22.79%; the “AML cell differentiation (% hCD33 + hCD11b+ (of hCD45+ cells))” value (B: 1 mg/kg Compound A, treatment day 23) was 57.17% and 53.16% and 47.84% and 49.9%; the “AML cell differentiation (% hCD33 + hCD11b+ (of hCD45+ cells))” value (B: 1 mg/kg Compound A, treatment day 36) is 48.72% and 38.84% and 42.4% and 42.69%; the “AML cell differentiation (% hCD33 + hCD11b+ (of hCD45+ cells))” value (B: 1 mg/kg Compound A, treatment day 50) is 46.97% and 50.22% and 37.55% and 38.56%; the “AML cell differentiation (% hCD33 + hCD11b+ (of hCD45+ cells))” value (B: 1 mg/kg Compound A, treatment day −8 (before treatment)) was 18.21% and 15.94% and 14.64%; the “AML cell differentiation (% hCD33 + hCD11b+ (of hCD45+ cells))” value (C: 10 mg/kg Compound A, treatment day 7) was 28.5% and 44.67% and 21.82% and 37.68% and 30.22%. In addition, the “AML cell differentiation (% hCD33 + hCD11b+ (of hCD45+ cells))” value by setting is: (C: 10 mg/kg Compound A, treatment day 23) 66.4% and 65.68% and 78.04% and 75.09% and 68.25%; (C: 10 mg/kg Compound A, treatment day 36) 76.97% and 73.58% and 78% and 69.41% and 81.2%; (C: 10 mg/kg Compound A, treatment day 50) 78.52% and 72.99% and 88.65% and 77.31% and 73.29%; (C: 10 mg/kg Compound A, treatment day −8 (before treatment)) 22.89% and 20.16% and 18.9% and 18.51% and 23.52%.

Values taken from patent publication US12440493B2, “Combination therapy for treating cancer comprising substituted piperazines” (Eli Lilly and Company, priority 2020, dated 2025).
